According to PubChem BioAssay AID686971 (National Center for Advancing Translational Sciences (NCATS), 2013):
Out of some 360,000 compounds screened, about 7,500 (2.1%) were called active. Inconclusive means that the source gave no clear call. Such entries were picked first, then a sample of the others. The call rests on the fitted dose curve; in most records, active means well fitted cell-killing curve with a large enough effect; inconclusive means small, poorly fitted or top-dose-only effect, or effect the other way, or another doubt; inactive means no such curve, though single readings can be large or run the other way. Potencies of inconclusive entries are left out as doubtful fits.

test: qHTS for induction of synthetic lethality in tumor cells producing 2HG: qHTS for the HT-1080-IDH1KD cell line; settings: HT-1080 IDH1 knockdown viability, ATP luminescence, 48 h; activity, negative = toxicity: at 46.1 µM (top of the series) unless noted;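 on activity, negative = toxicity: 0% = DMSO wells and -100% = cell-free medium wells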
Procedure, shortened: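 After a 2 h attachment period, IDH1KD HT-1080 cells took pin-transferred compound for 48 h at 37 °C; ATP-based luminescence after 10 min room-temperature reagent incubation reported viability.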
Potency means the concentration at half of the fitted maximal effect; tags describe the fitted curve by direction and shape.

SMILES	Potency	activity, negative = toxicity
N=C1/C(=C/c2cccn2Cc2ccc(Cl)cc2)C(=O)N=C2SC=CN12	active: 20.6 µM	
COc1ccc(OC)c(NC(=O)C2COc3ccccc3O2)c1 (stereo not given)		inactive: 2.01%
Cc1ccc(-c2nc3ccccc3s2)cc1NC(=S)NC(=O)/C=C/c1ccco1	inconclusive [cytotoxic, partial curve, poor fit]	
COc1ccc(C(=O)NC2CC2)cc1OC1CCN(Cc2ccc(F)cc2F)CC1		inactive: -1.53%
Nc1cc(N2CCOCC2)c(Cl)cc1[N+](=O)[O-]	active: 16.4 µM	
O=C(O)CC1S/C(=N/N=C/C2CC=CCC2)NC1=O (stereo not given)		inactive: 17.3%
CC(=O)c1cccc(NC(=O)c2cc(S(=O)(=O)N3CCOCC3)cs2)c1		inactive: 8.46%
COc1cc(/C=C/C(=O)/C=C(O)/C=C/c2ccc(O)c(OC)c2)ccc1O	inconclusive [cytotoxic, single point]	
CC(C)C(NS(=O)(=O)c1cccs1)C(=O)Nc1nc(C(C)(C)C)cs1 (stereo not given)	inconclusive [cytotoxic, single point]	
Cn1c(NCCN2CCCC2)nc2cc(-c3ccccc3)sc2c1=O	active: 13 µM	
COCCN(CC(=O)Nc1cccc(C)c1C)C(=O)c1cc(S(=O)(=O)N2CCCC2)ccc1C		inactive: 5.69%
COc1ccc(N(Cc2cc(=O)[nH]c3ccccc23)C(=O)CCl)cc1	active: 23.1 µM	
Cc1cc(-c2n[nH]c(=S)n2/N=C/c2ccc(Cl)c([N+](=O)[O-])c2)n[nH]1	active: 4.61 µM	
CC(=O)c1sc(N/N=C2\CC3CCC2(C)C3(C)C)nc1C (stereo not given)	inconclusive [cytotoxic, partial curve]	
O=C(C[C@H]1C(=O)N(Cc2cccnc2)C[C@@H]1Cc1ccccc1)Nc1ccc(Br)cc1	inconclusive [cytotoxic, single point]	
CC1(C(=O)NCCc2ccccc2)Cc2c(-c3ccc4c(c3)OCO4)ccnc2O1 (stereo not given)	inconclusive [cytotoxic, single point]	
CCc1nc(N2CCN(Cc3ccc4c(c3)OCO4)CC2)c2oc3ccccc3c2n1	inconclusive [cytotoxic, single point]	
O=C(NN=C1CCC(=NNC(=O)c2cccnc2)CC1)c1cccnc1	inconclusive [cytotoxic, single point]	
CC1(C(=O)Nc2ccccc2Cc2ccccc2)CCN1Cc1ccccc1Cl (stereo not given)	inconclusive [cytotoxic, single point]	
CCCCCCSc1cccc(-c2nc3cc(C)ccn3c2NCc2ccccc2)c1	inconclusive [cytotoxic, single point]	
O=C(NCc1ccccc1)C(c1ccc(C(F)(F)F)cc1)n1c(=O)c(-c2cc3ccccc3[nH]2)nc2ccccc21 (stereo not given)	inconclusive [cytotoxic, single point]	
CS(=O)(=O)c1ccc2nc(NC(=O)c3ccccc3Cl)sc2c1		inactive: -9.67%
CC(C)CC(=O)Nc1ccc(C(=O)NNC(=S)NC(=O)C2CCCCC2)cc1	inconclusive [cytotoxic, single point]	
COc1ccccc1-c1sc2ccccc2c1-c1ccc(OCCN2CCCCC2)cc1	inconclusive [cytotoxic, single point]	

SMILES	Potency	activity, negative = toxicity
COc1cccc(NC(=S)NC(=O)/C=C/c2ccco2)c1	active: 6.51 µM	
CC(C)C[C@@H](CN1CCC[C@H]1CN1C(=O)C(=O)NC[C@@H]1Cc1ccc(O)cc1)N1C[C@H](Cc2ccccc2)N(CC2CCCCC2)C(=O)C1=O	inconclusive [cytotoxic, single point]	
O=C1OC(c2ccc3ccccc3c2O)(c2ccc3ccccc3c2O)c2ccccc21		inconclusive: -31.9% [cytotoxic]
COc1ccc(NC(=O)CCCN2C(=O)/C(=C\c3ccco3)SC2=S)cc1		inconclusive: -34% [cytotoxic]
Fc1ccc2[nH]c3c(N4CCc5ccccc5C4)ncnc3c2c1	active: 2.59 µM	
COc1ccc(C(=O)c2c(C(F)(F)F)oc3c2C(=O)c2ccccc2C3=O)cc1	active: 6.51 µM	
CN1CCN(CCCC(=O)c2ccc(C3CCCC3)cc2)CC1	active: 32.6 µM	
COc1ccccc1N1CCc2c(C)nc3c(OC)cccc3c21	inconclusive [cytotoxic, partial curve]	
Cc1cccc2cc(CN(CCCO)C(=O)Nc3ccccc3Cl)c(=O)[nH]c12		inactive: -7.27%
CCOc1ccc(-c2nnc(SCC(=O)Nc3ccc4c(c3)c3ccccc3n4CC)n2N)cc1	inconclusive [cytotoxic, single point]	
CCN(CC)CCCNC1=C(Cl)C(=O)c2ccccc2C1=O	active: 20.6 µM	
COC(=O)c1c(C)n(-c2ccc(OC)cc2)c2ccc(O)cc12	inconclusive [cytotoxic, single point]	
Cn1ncc(C#N)c1NC(=O)C1CC(c2ccccc2Cl)=NO1 (stereo not given)		inactive: 7.21%
CCN(CC)S(=O)(=O)c1cccc(NC(=O)Nc2cccc(C(F)(F)F)c2)c1	active: 20.6 µM	
CCC/C(=C1/c2ccccc2C(=O)N1c1ccccc1)c1ccc2[nH]ccc2c1	inconclusive [cytotoxic, single point]	
O=C(NCC1CCCO1)c1cc(-c2ccccc2)nc2ccc(Br)cc12 (stereo not given)		inactive: 1.6%
Cc1cc(C(=O)COC(=O)c2ccc(NC(=O)CC#N)cc2)c(C)n1C1CC1		inactive: 8.25%
COc1cccc(CNC(=O)COc2ccc(C(=O)c3ccccc3)cc2)c1	inconclusive [cytotoxic, single point]	
Cc1cccc(NC(=O)C2c3ccccc3C(=O)N3CCc4ccccc4C23)n1 (stereo not given)	inconclusive [cytotoxic, single point]	
COc1cc(/C=C2/C(=N)N3C(=NC2=O)SN=C3S(C)(=O)=O)ccc1OS(=O)(=O)c1ccc(C)cc1	inconclusive [cytotoxic, single point]	
NC(=O)c1[nH]cnc1N=NN(CCO)Cc1ccccc1		inactive: -7.9%
CCOC(=O)c1c(-c2ccc(OC)cc2)csc1NC(=O)C1CCCO1 (stereo not given)		inactive: -0.29%
Cc1ccccc1N1CCN(CCCN2C(=O)CC(=C(c3ccccc3)c3ccccc3)C2=O)CC1	inconclusive [cytotoxic, single point]	
COCC(C)n1c(SCc2cc(=O)n3cc(C)ccc3n2)nc2ccccc2c1=O (stereo not given)	inconclusive [cytotoxic, single point]	

SMILES	Potency	activity, negative = toxicity
O=C(Nc1ccc(C(F)(F)F)cc1)c1ccc(NC(=O)C2CCCO2)cc1 (stereo not given)	inconclusive [cytotoxic, partial curve]	
O=C(COC(=O)CSc1ccc([N+](=O)[O-])cc1)NCC1CCCO1 (stereo not given)		inactive: 14.5%
CC(=O)Oc1ccc(-c2cccc(C(=O)OCC(=O)Nc3ccccc3Oc3ccccc3)c2)cc1	inconclusive [cytotoxic, single point]	
O=C(Cn1cnc2c(oc3ccccc32)c1=O)NCCc1ccccc1	inconclusive [rising, single point]	
Cc1ccc(C(O)c2ncc(-c3ccc(C(F)(F)F)cc3)[nH]2)cc1F (stereo not given)	inconclusive [cytotoxic, single point]	
Cc1ccc(NC(=S)NNC(=O)CCn2cc(C)cn2)cc1	active: 6.31 µM	
O=C(O)C1C(c2ccccc2)C(C(=O)OCc2ccco2)C1c1ccccc1 (stereo not given)		inactive: 2.55%
CC(C)Oc1cc(NC(=O)CSCC(=O)Nc2cccc(C(F)(F)F)c2)c(Cl)cc1Cl	inconclusive [cytotoxic, single point]	
CN(C)CCCN1C(=O)c2cccc3c([N+](=O)[O-])ccc(c23)C1=O	active: 5.8 µM	
Cc1ccc(CNC(=O)Cn2cnc3c(NCc4ccccc4)ncnc32)o1	inconclusive [cytotoxic, single point]	
CCN(CC)CCCC(C)NC(=O)c1c(NC(=O)c2ccccc2)sc2c1CCCC2 (stereo not given)	inconclusive [cytotoxic, single point]	
COc1ccc(Oc2ccc(/C=N/NC(=O)c3cccnc3)cc2[N+](=O)[O-])cc1	inconclusive [cytotoxic, single point]	
O=C(Cc1ccccc1)N/N=C/c1ccc2cccc(O)c2n1	inconclusive [cytotoxic, single point]	
O=C(CCn1cnc(-c2ccccc2)c1-c1ccccc1)N/N=C/c1ccc(O)cc1	inconclusive [cytotoxic, single point]	
O=C(O)c1cccc(Nc2c3ccccc3nc3ccccc23)c1		inactive: -0.607%
CCc1nc2ccc(C(=O)N3CCN(S(=O)(=O)CC)CC3)cn2c1N(CC)CCOC	inconclusive [rising, single point]	
CCC(C)NC(=S)Nc1ccc(C(=O)OC)cc1 (stereo not given)	inconclusive [cytotoxic, single point]	
CN(Cc1c(C(=O)N/N=C/c2ccccc2F)nnn1-c1nonc1N)c1ccccc1		inactive: -9.95%
N#CC1CCCc2c1[nH]c1ccc([N+](=O)[O-])cc21 (stereo not given)	inconclusive [cytotoxic, single point]	
COC(=O)[C@@H]1CCCN1C(=O)CCc1nnc(CCC2CCCCC2)o1		inactive: 17.8%
Cc1ccc2c(c1)c1c3n2CCN(C(=O)CN2CCN(C)CC2)C3CCC1 (stereo not given)	inconclusive [cytotoxic, single point]	
CN(C)c1ccc(NC(=O)Cn2c(=O)n(Cc3ccccc3)c(=O)c3ccccc32)cc1	inconclusive [cytotoxic, partial curve, poor fit]	
